ChEMBL document CHEMBL4888484, “Replenishing the malaria drug discovery pipeline: Screening and hit evaluation of the MMV Hit Generation Library 1 (HGL1) against asexual blood stage Plasmodium falciparum ,using a nano luciferase reporter read-out” (2022)
Out of some 150,000 compounds screened, about 540 (0.36%) showed an effect of 50% or more. Some of the results follow.

test system: Plasmodium falciparum; experiment: Primary screen in NF54 nanoGlo assay, in single point, at 2uM, 72h; a lower Z score goes with more inhibition; assay type: functional, Erythrocyte; conditions: timepoint 72 hour

| Compound | % Inhibition | Z score |
| --- | --- | --- |
| CC(C)NC(=O)c1cccc(N2CCCN(Cc3ccccc3)C2=O)c1 | -3% | 0.58 |
| NC(=O)[C@H]1CCCN1Cc1cc(-c2ccccc2)[nH]n1 | -13% | 1.43 |
| c1cncc(COC2CCN(c3ncncn3)CC2)c1 | -17% | 2.14 |
| O=C(NC1CCN(Cc2ccccc2)CC1)[C@H]1C[C@@H]1c1cccnc1 | 4% | -0.41 |
| CCc1csc(CNC(=O)c2ccc(N3CCC[C@H]3CO)nc2)n1 | -18% | 3.37 |
| Cc1nsc2c1[C@@H](c1ccc3cccc(O)c3n1)CC(=O)N2 | -3% | 0.31 |
| CCn1cc(CC(=O)Nc2ccc(OC)c(OC)c2)c2cccnc21 | 10% | -1.17 |
| COc1cc(C(=O)NCc2c3c(c(O)c4c2OCO4)C(=O)N(C)CC3)cc2c1OCCCO2 | -6% | 0.78 |
| OCc1nc2cc(-c3cc(F)cc4cccnc34)ccc2[nH]1 | 0% | -0.01 |
| CCN1CCC(NC(=O)COc2ccc(-c3ccccc3)cc2)CC1 | -15% | 1.39 |
| Oc1nc2ccc(Cl)cc2c(-c2ccccc2)c1N1CCN(c2ccccc2)CC1 | -11% | 1.15 |
| Cn1nncc1C(=O)N[C@H]1CCCC[C@H]1NC(=O)c1cnnn1C | -15% | 1.62 |
| N#CCCCS(=O)(=O)Cc1ccccc1C1CC1 | 0% | 0.05 |
| CC(C)(C)c1ccc(C(=O)N2CCS(=O)(=O)C3COCCC32)s1 (stereo not drawn) | -3% | 0.33 |
| CC[C@@H]1Oc2ccc(NC(=O)Cc3ccccc3)cc2CN(CCOc2ccccc2)C1=O | -18% | 2.11 |
| COc1cc(C(=O)N2CCn3nc(CCC(=O)NCCO)cc3C2)ccn1 | 4% | -0.59 |
| COc1ccc(-c2nnc3n2CCN(Cc2scnc2C)C3)cc1 | -4% | 0.84 |
| C#Cc1cccc(NC(=O)C(=O)N(C)CCC#N)c1 | -10% | 1.47 |
| CCCCc1nn(CC(=O)NCc2nc3c(s2)CCCC3)c(=O)n1CC | -14% | 1.82 |
| O=C1c2ccccc2NC2(CCCCC2)N1c1ccc(F)cc1 | -9% | 1.31 |
| Cc1ccc(-c2noc(N3CCN(C(=O)[C@@H]4CCCO4)CC3)n2)cc1 | -4% | 0.46 |
| Cn1cccc1-c1nnc2n1CCN(C(=O)OC(C)(C)C)C(C)(C)C2 | 5% | -0.81 |
| CC1=CCN(C(C)C(=O)N(C)CC2COc3ccccc3O2)CC1 (stereo not drawn) | 3% | -0.47 |
| COCCN1C[C@@H](c2ncnn2-c2ccc(Cl)cc2Cl)CC1=O | -22% | 1.98 |
| Cc1nc(C(=O)Nc2ccc3c(c2)ncn3C)c(-c2ccc(F)cc2)s1 | -20% | 2.55 |
| Cc1cscc1NC(=O)N1CCn2nc(C(F)(F)F)cc2C1 | 4% | -0.67 |
| CCc1nn(C)c(Cl)c1CNCc1ccc2nsnc2c1 | -5% | 0.72 |

| Compound | % Inhibition | Z score |
| --- | --- | --- |
| Cc1ccc2[nH]c(C(=O)N3CCC(C)CC3)cc(=O)c2c1 | -3% | 0.46 |
| CN(C)c1ccc(N2C(=O)CC(N3CCCC(N4CCCC4=O)C3)C2=O)cc1 (stereo not drawn) | -2% | 0.21 |
| O=C(N[C@@H]1CN(C(=O)Nc2cccc(C(F)(F)F)c2)CCC[C@H]1O)c1ccc(O)cc1 | 8% | -1.53 |
| CC(NC(=O)C1COCCN1)c1c(Cl)ccc(F)c1Cl (stereo not drawn) | 6% | -0.9 |
| CCC(O)CN1C(=O)C2CCCCN2C1=O (stereo not drawn) | -15% | 2.19 |
| Cc1csc2c(N3CCO[C@H](c4nccs4)C3)ncnc12 | -9% | 1.24 |
| CCc1ccc(C(=O)NC[C@H](C)n2ccnc2)[nH]1 | -10% | 0.97 |
| O=C1[C@H]2CCCN2C(=O)N1Cc1ccc(O)c(Br)c1 | 0% | -0.03 |
| CC1CCN(C(=O)c2cc(NC(=O)Nc3ccccc3Br)ccc2N2CCC(C)CC2)CC1 | -4% | 0.6 |
| CN(C)C(=O)CCn1cc(-c2cnn(-c3ccccn3)c2)cn1 | -13% | 1.35 |
| COc1cccc(-c2ccc(N3CCN(C(=O)CN(CC4CC4)C(=O)c4ccccc4F)CC3)nn2)c1 | -14% | 1.54 |
| CCn1cc(NC(=O)Cn2cc(C)c(-c3cnn(C)c3)n2)nn1 | -11% | 1.46 |
| Cc1cc(C)cc(C2=CCN(c3nc(C)c(S(N)(=O)=O)s3)CC2)c1 | 13% | -1.53 |
| CC(C)c1nnnn1CC(=O)N1CCN(c2ncccn2)CC1 | -18% | 2.83 |
| Cc1nc([C@@H](N)Cc2ccc(O)cc2)n(-c2cccc3cccnc23)n1 | -13% | 1.68 |
| CO[C@H]1CCN(c2ncc(Cl)cc2Cl)C1 | 0% | -0.06 |
| C=CCC1(CC=C)CCCN1C(=O)c1cc(C)nc(C)n1 | -16% | 1.75 |
| COCc1cc(N2C[C@@H]3CN(C4CCCCC4)C[C@]3(C(=O)O)C2)ncn1 | -21% | 2.68 |
| COc1cnc(NS(=O)(=O)c2sccc2OC)nc1 | 11% | -0.98 |
| CN(Cc1sc2ccccc2c1Cl)C(=O)CCNS(C)(=O)=O | -3% | 0.49 |
| O=S(=O)(c1ccccc1)N1CCC(Nc2ccc(Br)cc2)CC1 | 34% | -1.28 |
| O=C(CCc1cccs1)N1CCN(C(=O)C2CCC2)[C@H]2CS(=O)(=O)C[C@H]21 | -23% | 3.14 |
| O=C(CN1C(=O)COC1=O)c1ccc2c(c1)CCCC2 | 5% | -0.55 |
| CC(=O)Nc1c(C)cc(S(C)(=O)=O)cc1C | -4% | 0.46 |
| CN(C)C(=O)CN1C(=O)[C@@H]2CC[C@H]1CN(C(=O)c1ccc3ncsc3c1)C2 | -1% | 0.17 |
| C[C@H]1CC[C@H](O)CN1Cc1ccc(C(=O)O)cc1 | -3% | 0.59 |
| C[C@@H](COc1ccccc1)NCCc1nc2ccccc2c(=O)[nH]1 | 4% | -0.64 |
